Source: the supplement of paper PMC12632987
Whole data set: some 4,500 sequences, median “median log2 fold change of GCK-ALFA target abundance (FLAG IP / Myc IP barcode read proportion)” near 0.078, cut for the lowest 2% near -0.6. This is one part of the list.

B1: GBRAP_128_3600 (protein)
chain: AAEEAREKAREMMEKIKESNLEEAAKIAKELGEYLLTLSLEEVEAAAEEIIKRAPELSEDKLLILQDALHAAAQKASPEKAEVLLYALGELGEEAYEKEE
B2: GBRAP_177_5012 (protein)
chain: SVVEQAEAALDDLEALLALVKSTDFSKLSKEEALALIAILAKAIAKHGYDEEAVEALAKLILAAMKYHGVTLGELLGIVIEHVDADTAEKVLERVEKLRE
B3: GBRAP_35_5596 (protein)
chain: ELDELAVESTIDMIEALIEGVPELPVDTLAAIARTLAREVRELAEELKDNKEALKRLREAVERLREALERHHADDPRAQEVIKELREVAKYLEELAKEVE
B4: GBRAP_78_6677 (protein)
chain: EVEEELEKAMEELSKAAKILNKMNTEEALDILGKVIDVLEIVWEAYNGEADLEELEEALKLLKEALEETKKINTEEAKKAAEHLEKAIEHLEKAIKLLKK
B5: GBRAP_160_4460 (protein)
chain: MEKIKKYVEDLVADVKAELEANKDDSNENIINAASIVIGSHLMEAVDEGILTDEQEEILMKAMDEIEELKKTLPDASPEEIIAKIKEIIDKMAKEILESA
B6: GBRAP_160_4212 (protein)
chain: GEKIEEIIKMIKEATEEVIKLIPEESREEVANFAAVEYGSVLMEAVDMGEENDEILDTIADAADEIVATLLANKDASDEEVAAKLKAITEKAIEEIKKIA
B7: GBRAP_160_4174 (protein)
chain: SETLEEAKKEIKEIFEEAYEMMKGQTAEERAAIARVAFGEVILLLEEKGLLTDELDEYIEEVEEEVVNYILENPDLTDEELKKLLEEAREKIIKALEESS
B8: GBRAP_95_7042 (protein)
chain: DDDVLATESAAEVLETAVALGDKEAARKAAKELLELLAETPVEKVKLDLSPETAKAIIAVAKETYDRETAIALLEKLAAVLTNPEVKALALAAAAALRAE
B9: GBRAP_48_5839 (protein)
chain: SEARREAAVEAILAVIRETAELLEEAKAEGLSEAAFEAILIDAAEEIAEILERYLGLGEAWRALPLEEQLARVRELVEILRTEGEEAAREAIRRWIDELE
B10: GBRAP_125_3017 (protein)
chain: AEEELAAALGLIARRLGLSEAEIEELRRLAREHGVKGAMIALALAEGWEELADLLEQLSEEEVAAVVRRVAAALRADPSLTPEELRALLLAEARAALAAS
B11: GBRAP_184_5328 (protein)
chain: KTVEVHIPNKSLEEIVKEFEKAAAEAAAKGADLVVHVDASGYSSEELVELLERMGKIAKEKGIKNVTVGLDVEVDEETADKLIEVADKYGIKLTLALSDE
B12: GBRAP_184_5051 (protein)
chain: KILERTIKAENLEELKKKLEELKKELENFKGKLIVHVEMPKFTEEMVRLIIETLKEILEEGYVDSVTVGLDGEMSEEVVDLAVKLAKEAGINVVLALEEE
B13: GBRAP_160_4752 (protein)
chain: SEELEKLRKEVEEIFEEGEELLKEVPASEAPTVVKGTMGEVLMLVFSSEAASDELEEEVGKIVDETEKEAAANANAPVEEHIALLRKAKKEILEAIDKEI
B14: GBRAP_9_7160 (protein)
chain: LQALIDEIQAVINDAFDEVAEIVPAEHRPVVDAARAEAEATFAALKADPTTTKEQAVETAKQLLRDALARIAAVVDPETARMAEAIILTAELEIEEIAEK
B15: GBRAP_52_5853 (protein)
chain: MEERARELARRLVELALAGDREGLRRELEELVRTLSEEEILEILRELAELAKTATPEEVDAIVEVAIELADIAEEAGFDEWELSAALADVGKAAYENLQK
B16: GBRAP_80_6777 (protein)
chain: AVEEAEKAIKELEKLDPELAERAKKILEKLKEQGASDEVFKAFAEAVKAIAKLVELGLEEEAKELLKEMEEAAEEEDQENRLAMFRGIAGEALLAVEEAE
B17: GBRAP_95_7035 (protein)
chain: EDDKLALESDLEVAVAAAELGDEEAAARALRRALELLEKAGKVKLDPELLKETIEVVLRVGVKRLPKEEVLRLLELLLEDAETEEVKELAKKAIEEVKER
B18: GBRAP_78_6587 (protein)
chain: KIDEAIDEFLKAVGETMRLLSKDPSELAQDLLGELIDESSAILEAYEEENDKEKILKEAKAALEALKKALEKREQFSPELVKAIEEAAKAAEKLIKLLEE
B19: GBRAP_48_5841 (protein)
chain: EEEKLEKAIEEILKVIEETAELLEELEEEGLSEAAFEAVLIDAAEEIEEILEKYLGLGEEFKKLPLEERLKIVRELVEIYREEGREAARKRIREFIESLK
B20: GBRAP_160_4224 (protein)
chain: METVEKLVKIFRENFEEALELIEGESLEEQKVILDVAAGEVILEAEEIEEATEEMVEIVDKKAEEAREELLEAREASKEEKRKLIEEHAEKLRKELEKVA
B21: GBRAP_52_6181 (protein)
chain: MRAAIRAALEEIFALVKEGRLDEARAKAEALVASLDDAELRLLVEEYGAFAAEQPLENEDDVFRTAEIIAEAIEAAGKDEALAEDLLAAAAAALYKKRLA
B22: GBRAP_52_6141 (protein)
chain: MSEELKAQAQQIIELVKAGKLDEAQALADKLVKENNDEELKEFADEFAEVIESLRPEEIDYAAQALEILVDSMEKAGRDPEIISYLIGKSTTAMYKVELK
B23: GBRAP_184_5125 (protein)
chain: TLVRATVEGEDAEELIAAARAVVEAAAAAGARLDLHVIARNMSTEEVIRVIKALGELQKAHPQVRIILDVEDEKSDEEIDRLVAAADEAGVRLVLAIPEE
B24: GBRAP_160_4699 (protein)
chain: SATAEKLKKYATEEFERAKELIVGESREQRAIIVEGIGGEIIMELIENEEVSDELVDEVDAIIDALVATILANPNLTDEELKKLIDDALAKIKAAIDKHL
B25: GBRAP_14_3832 (protein)
chain: MEEVEKVIKETLEEIREELIDMFPEKAEEIKARIEEILKKALKLLKETKDVEKTLKYIKEELLAAVDEILADESPEARAAARALVINEVAEAELEIEELK
B26: GBRAP_184_5244 (protein)
chain: MVLERELVAKTPEEAKEKLAALREEARASGAKVELTLTLEDADEELVKAAMEGIKELREEGLLERAEVVIESYKSEEVLDLAMELAHEVGVDALWYNDNP
B27: GBRAP_78_6735 (protein)
chain: DLEKELKEVLEETIKLMDEIIKNSEKFSEETLGEAVEALNYALLADLSGGDLELLEETAKALKELIKLLEKEKTPLAKELAKKAKELLKKLEEIIKKKKE
B28: GBRAP_122_2956 (protein)
chain: SEEERIEELVEETLRRAEEGDPAEALFEALKRAAEEFDAESLIELADRLKEAFLERGWEAEALRAYARAAQWLAENKPELAEAADHLADLALELLDRLEE
B29: GBRAP_160_4541 (protein)
chain: SEKVEKLIKDIEEEEEEIKELVGEISNEELINFVSVEIGSIILEGIELGIFSDELEEEIDEIEEELIEKLKENKNASPEEKKAIIEEAAKKIKEAIKKSS

target: GABARAP, O95166; assay: median log2 fold change of GCK-ALFA target abundance (FLAG IP / Myc IP barcode read proportion) (log2 ratio); each designed protein is fused to an ALFA-tag nanobody in HEK293 cells to bring the named protein to FLAG-tagged glucokinase (GCK); Myc marks an untargeted standard; higher = target protein stabilised (more abundant); settings: target protein: 3xFLAG-MCP-GCK-ALFA reporter; HEK293 landing pad (RPLP)
Experimental: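 LABEL-seq trans screen in HEK293 landing-pad cells. Each de novo designed 100-aa effector handle, binding the indicated effector (E3 ligase, DUB or autophagy protein), is fused to a constant NbALFA target handle and induced with 2 ug/mL doxycycline. A FLAG-MCP-GCK-ALFA target and a Myc-MCP standard reporter were transfected, and after 48 h circRNA barcodes were recovered by anti-FLAG and anti-Myc IP and sequenced. The value is the median across barcodes (at least 3 per design) of log2(FLAG/Myc read-proportion ratio), with the two transfection replicates pooled. Negative values mean degradation and positive values mean stabilisation of the target.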

GABARAP, O95166, sequence (O95166 whole entry, the tested form may be a part): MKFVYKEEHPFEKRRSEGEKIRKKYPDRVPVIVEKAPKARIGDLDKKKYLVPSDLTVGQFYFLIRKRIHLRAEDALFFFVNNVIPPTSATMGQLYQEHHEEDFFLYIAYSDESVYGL

| Binder | median log2 fold change |
| --- | --- |
| B1 | 0.418 |
| B2 | 0.215 |
| B3 | 0.0872 |
| B4 | -0.499 |
| B5 | 0.184 |
| B6 | -0.329 |
| B7 | -0.374 |
| B8 | 0.332 |
| B9 | 0.103 |
| B10 | 0.0319 |
| B11 | 0.132 |
| B12 | 0.0143 |
| B13 | 0.156 |
| B14 | 0.116 |
| B15 | -0.459 |
| B16 | 0.309 |
| B17 | 0.117 |
| B18 | 0.126 |
| B19 | 0.175 |
| B20 | -0.617 |
| B21 | 0.0935 |
| B22 | 0.234 |
| B23 | 0.0858 |
| B24 | -0.0172 |
| B25 | 0.204 |
| B26 | 0.0102 |
| B27 | -0.101 |
| B28 | -0.0195 |
| B29 | -0.191 |
